The other results are listed elsewhere or left out. The list includes weakly bound sequences.

This test addresses T1, MBP-FoxP3dN (UniProt Q99JB6).
T1 sequence: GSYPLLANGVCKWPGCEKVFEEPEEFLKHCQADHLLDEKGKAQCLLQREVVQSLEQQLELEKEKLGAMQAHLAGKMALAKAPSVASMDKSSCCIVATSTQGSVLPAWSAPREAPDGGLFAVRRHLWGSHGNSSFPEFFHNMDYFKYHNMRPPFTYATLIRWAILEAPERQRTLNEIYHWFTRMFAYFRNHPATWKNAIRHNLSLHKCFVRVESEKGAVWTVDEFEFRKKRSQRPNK
In words: PD-seq (MBP pull-down with sequencing). The following applies: 20 mM Tris-HCl pH 7.5, 100 mM NaCl, 1.5 mM MgCl2, 0.4 uM protein, 0.1 uM dsDNA library, 30 min, room temperature, amylose pull-down; high values mean tight binding; double strand, one strand shown.
In the case of “GATGATTGTTCTCCCAGCTGATGAATTGTACCGTTCGAGTAAACAAATTTTCCTAATCTTTCTGTTCAAGCGCCATCTAC”, the binding signal (RPM ratio (pull-down/input)) stood at 0.52.
The figure for “GATGATTGTTCTCCCAGCTGATGAATTCCCACCTTCGAGTAAACAAATTTTCCTAATCTTTCTGTTCAAGCGCCATCTAC” is 0.276; for “GATGATTGTTCTCCCAGCTGATGAATTTTCGCGCTCGAGTAAACAAATTTTCCTAATCTTTCTGTTCAAGCGCCATCTAC” it is 0.401.
For “GATGATTGTTCTCCCAGCTGATGAATTGGACCAGTCGAGTAAACAAATTTTCCTAATCTTTCTGTTCAAGCGCCATCTAC” the value was 0.224.
For “GATGATTGTTCTCCCAGCTGATGAATTGAGGCGGTCGAGTAAACAAATTTTCCTAATCTTTCTGTTCAAGCGCCATCTAC” the value was 1; for “GATGATTGTTCTCCCAGCTGATGAATTAAGCGGGTCGAGTAAACAAATTTTCCTAATCTTTCTGTTCAAGCGCCATCTAC”, 0.523.
Consider “GATGATTGTTCTCCCAGCTGATGAATTTTGGTACTCGAGTAAACAAATTTTCCTAATCTTTCTGTTCAAGCGCCATCTAC”, for which the binding signal (RPM ratio (pull-down/input)) is 0.641.
“GATGATTGTTCTCCCAGCTGATGAATTTTGAAAGTCGAGTAAACAAATTTTCCTAATCTTTCTGTTCAAGCGCCATCTAC”: the binding signal (RPM ratio (pull-down/input)) worked out at 0.28.
Consider “GATGATTGTTCTCCCAGCTGATGAATTTCACCCCTCGAGTAAACAAATTTTCCTAATCTTTCTGTTCAAGCGCCATCTAC”, for which the binding signal (RPM ratio (pull-down/input)) was found to be 0.332.
For “GATGATTGTTCTCCCAGCTGATGAATTGACCTAATCGAGTAAACAAATTTTCCTAATCTTTCTGTTCAAGCGCCATCTAC” the value was 0.344.
For the sequence “GATGATTGTTCTCCCAGCTGATGAATTGAAGTATTCGAGTAAACAAATTTTCCTAATCTTTCTGTTCAAGCGCCATCTAC”, the binding signal (RPM ratio (pull-down/input)) worked out at 0.94.
Regarding “GATGATTGTTCTCCCAGCTGATGAATTTTGTAACTCGAGTAAACAAATTTTCCTAATCTTTCTGTTCAAGCGCCATCTAC”, the binding signal (RPM ratio (pull-down/input)) was found to be 3.34.
With “GATGATTGTTCTCCCAGCTGATGAATTATACGGTTCGAGTAAACAAATTTTCCTAATCTTTCTGTTCAAGCGCCATCTAC”, the binding signal (RPM ratio (pull-down/input)) is 0.434.
As for “GATGATTGTTCTCCCAGCTGATGAATTATATAATTCGAGTAAACAAATTTTCCTAATCTTTCTGTTCAAGCGCCATCTAC”, the binding signal (RPM ratio (pull-down/input)) turned out to be 0.565.
For the sequence “GATGATTGTTCTCCCAGCTGATGAATTGCGTATCTCGAGTAAACAAATTTTCCTAATCTTTCTGTTCAAGCGCCATCTAC”, the binding signal (RPM ratio (pull-down/input)) turned out to be 4.44.
For “GATGATTGTTCTCCCAGCTGATGAATTGATCGCATCGAGTAAACAAATTTTCCTAATCTTTCTGTTCAAGCGCCATCTAC” the value was 1.04; for “GATGATTGTTCTCCCAGCTGATGAATTCTAATGCTCGAGTAAACAAATTTTCCTAATCTTTCTGTTCAAGCGCCATCTAC”, 0.63; for “GATGATTGTTCTCCCAGCTGATGAATTCACGGTATCGAGTAAACAAATTTTCCTAATCTTTCTGTTCAAGCGCCATCTAC”, 0.478.
For “GATGATTGTTCTCCCAGCTGATGAATTTGTTGGTTCGAGTAAACAAATTTTCCTAATCTTTCTGTTCAAGCGCCATCTAC” the value was 7.67; for “GATGATTGTTCTCCCAGCTGATGAATTCAATTCGTCGAGTAAACAAATTTTCCTAATCTTTCTGTTCAAGCGCCATCTAC”, 0.665; for “GATGATTGTTCTCCCAGCTGATGAATTGAGCAGCTCGAGTAAACAAATTTTCCTAATCTTTCTGTTCAAGCGCCATCTAC”, 1.12.
Consider “GATGATTGTTCTCCCAGCTGATGAATTATGATAGTCGAGTAAACAAATTTTCCTAATCTTTCTGTTCAAGCGCCATCTAC”, for which the binding signal (RPM ratio (pull-down/input)) turned out to be 1.14.
For “GATGATTGTTCTCCCAGCTGATGAATTTCCGCGTTCGAGTAAACAAATTTTCCTAATCTTTCTGTTCAAGCGCCATCTAC” the value was 1.45; for “GATGATTGTTCTCCCAGCTGATGAATTATCTCACTCGAGTAAACAAATTTTCCTAATCTTTCTGTTCAAGCGCCATCTAC”, 0.352; for “GATGATTGTTCTCCCAGCTGATGAATTATCGGTTTCGAGTAAACAAATTTTCCTAATCTTTCTGTTCAAGCGCCATCTAC”, 0.484.
On to “GATGATTGTTCTCCCAGCTGATGAATTACTAATATCGAGTAAACAAATTTTCCTAATCTTTCTGTTCAAGCGCCATCTAC”, for which the binding signal (RPM ratio (pull-down/input)) came to 1.23.
For “GATGATTGTTCTCCCAGCTGATGAATTATAGAAGTCGAGTAAACAAATTTTCCTAATCTTTCTGTTCAAGCGCCATCTAC” the value was 0.268.
For “GATGATTGTTCTCCCAGCTGATGAATTGAAGCACTCGAGTAAACAAATTTTCCTAATCTTTCTGTTCAAGCGCCATCTAC” the value was 0.499; for “GATGATTGTTCTCCCAGCTGATGAATTTGGTATCTCGAGTAAACAAATTTTCCTAATCTTTCTGTTCAAGCGCCATCTAC”, 3.76.
Take “GATGATTGTTCTCCCAGCTGATGAATTACTGTATTCGAGTAAACAAATTTTCCTAATCTTTCTGTTCAAGCGCCATCTAC”: the binding signal (RPM ratio (pull-down/input)) is 1.38.
For “GATGATTGTTCTCCCAGCTGATGAATTACGAGCTTCGAGTAAACAAATTTTCCTAATCTTTCTGTTCAAGCGCCATCTAC” the value was 0.34; for “GATGATTGTTCTCCCAGCTGATGAATTCATCTCCTCGAGTAAACAAATTTTCCTAATCTTTCTGTTCAAGCGCCATCTAC”, 0.354.
Regarding “GATGATTGTTCTCCCAGCTGATGAATTCGCCCTGTCGAGTAAACAAATTTTCCTAATCTTTCTGTTCAAGCGCCATCTAC”, the binding signal (RPM ratio (pull-down/input)) came to 0.301.
Consider “GATGATTGTTCTCCCAGCTGATGAATTTCACTGTTCGAGTAAACAAATTTTCCTAATCTTTCTGTTCAAGCGCCATCTAC”, for which the binding signal (RPM ratio (pull-down/input)) was 0.46.
The figure for “GATGATTGTTCTCCCAGCTGATGAATTCCCTCTGTCGAGTAAACAAATTTTCCTAATCTTTCTGTTCAAGCGCCATCTAC” is 0.227; for “GATGATTGTTCTCCCAGCTGATGAATTGACAGTTTCGAGTAAACAAATTTTCCTAATCTTTCTGTTCAAGCGCCATCTAC” it is 0.499.
As to “GATGATTGTTCTCCCAGCTGATGAATTCGCCAGATCGAGTAAACAAATTTTCCTAATCTTTCTGTTCAAGCGCCATCTAC”, the binding signal (RPM ratio (pull-down/input)) was 0.213.
Consider “GATGATTGTTCTCCCAGCTGATGAATTATCCCAGTCGAGTAAACAAATTTTCCTAATCTTTCTGTTCAAGCGCCATCTAC”, for which the binding signal (RPM ratio (pull-down/input)) was 0.212.
For “GATGATTGTTCTCCCAGCTGATGAATTAGGTAAATCGAGTAAACAAATTTTCCTAATCTTTCTGTTCAAGCGCCATCTAC” the value was 0.365.
For “GATGATTGTTCTCCCAGCTGATGAATTATCGCCCTCGAGTAAACAAATTTTCCTAATCTTTCTGTTCAAGCGCCATCTAC” the value was 0.578; for “GATGATTGTTCTCCCAGCTGATGAATTTTCTAAATCGAGTAAACAAATTTTCCTAATCTTTCTGTTCAAGCGCCATCTAC”, 0.227.
For “GATGATTGTTCTCCCAGCTGATGAATTAGTCAGGTCGAGTAAACAAATTTTCCTAATCTTTCTGTTCAAGCGCCATCTAC” the value was 0.433.
In the case of “GATGATTGTTCTCCCAGCTGATGAATTGGCGTTTTCGAGTAAACAAATTTTCCTAATCTTTCTGTTCAAGCGCCATCTAC”, the binding signal (RPM ratio (pull-down/input)) was found to be 1.26.
For “GATGATTGTTCTCCCAGCTGATGAATTCTAACCTTCGAGTAAACAAATTTTCCTAATCTTTCTGTTCAAGCGCCATCTAC” the value was 0.305; for “GATGATTGTTCTCCCAGCTGATGAATTGCAAGCCTCGAGTAAACAAATTTTCCTAATCTTTCTGTTCAAGCGCCATCTAC”, 0.869.
As to “GATGATTGTTCTCCCAGCTGATGAATTGCACAGTTCGAGTAAACAAATTTTCCTAATCTTTCTGTTCAAGCGCCATCTAC”, the binding signal (RPM ratio (pull-down/input)) was determined as 0.937.
The figure for “GATGATTGTTCTCCCAGCTGATGAATTCGCTTACTCGAGTAAACAAATTTTCCTAATCTTTCTGTTCAAGCGCCATCTAC” is 3.27; for “GATGATTGTTCTCCCAGCTGATGAATTACAAGGCTCGAGTAAACAAATTTTCCTAATCTTTCTGTTCAAGCGCCATCTAC” it is 0.469; for “GATGATTGTTCTCCCAGCTGATGAATTGAGATGATCGAGTAAACAAATTTTCCTAATCTTTCTGTTCAAGCGCCATCTAC” it is 0.508.
The figure for “GATGATTGTTCTCCCAGCTGATGAATTAGGCAGATCGAGTAAACAAATTTTCCTAATCTTTCTGTTCAAGCGCCATCTAC” is 0.432; for “GATGATTGTTCTCCCAGCTGATGAATTTCGACCATCGAGTAAACAAATTTTCCTAATCTTTCTGTTCAAGCGCCATCTAC” it is 0.59.
Consider “GATGATTGTTCTCCCAGCTGATGAATTTTTCAAATCGAGTAAACAAATTTTCCTAATCTTTCTGTTCAAGCGCCATCTAC”, for which the binding signal (RPM ratio (pull-down/input)) was found to be 0.31.
The figure for “GATGATTGTTCTCCCAGCTGATGAATTCCGATTATCGAGTAAACAAATTTTCCTAATCTTTCTGTTCAAGCGCCATCTAC” is 1.35.
The figure for “GATGATTGTTCTCCCAGCTGATGAATTCTCTCAGTCGAGTAAACAAATTTTCCTAATCTTTCTGTTCAAGCGCCATCTAC” is 0.198; for “GATGATTGTTCTCCCAGCTGATGAATTGAGCGTCTCGAGTAAACAAATTTTCCTAATCTTTCTGTTCAAGCGCCATCTAC” it is 3.37; for “GATGATTGTTCTCCCAGCTGATGAATTCTGGACATCGAGTAAACAAATTTTCCTAATCTTTCTGTTCAAGCGCCATCTAC” it is 0.357.
The figure for “GATGATTGTTCTCCCAGCTGATGAATTCAATGCTTCGAGTAAACAAATTTTCCTAATCTTTCTGTTCAAGCGCCATCTAC” is 0.976; for “GATGATTGTTCTCCCAGCTGATGAATTTGGTGTGTCGAGTAAACAAATTTTCCTAATCTTTCTGTTCAAGCGCCATCTAC” it is 3.91.
Consider “GATGATTGTTCTCCCAGCTGATGAATTTTAACTGTCGAGTAAACAAATTTTCCTAATCTTTCTGTTCAAGCGCCATCTAC”, for which the binding signal (RPM ratio (pull-down/input)) was 0.348.
For “GATGATTGTTCTCCCAGCTGATGAATTTGAGTATTCGAGTAAACAAATTTTCCTAATCTTTCTGTTCAAGCGCCATCTAC” the value was 1.53.
The figure for “GATGATTGTTCTCCCAGCTGATGAATTTACTTCATCGAGTAAACAAATTTTCCTAATCTTTCTGTTCAAGCGCCATCTAC” is 0.703.
For “GATGATTGTTCTCCCAGCTGATGAATTATTGACGTCGAGTAAACAAATTTTCCTAATCTTTCTGTTCAAGCGCCATCTAC” the value was 1.47; for “GATGATTGTTCTCCCAGCTGATGAATTCTAAGCATCGAGTAAACAAATTTTCCTAATCTTTCTGTTCAAGCGCCATCTAC”, 0.758.

Source of the values: article PMC12820563.
